Residue numbers refer to the chain shown, from its start. Some of the results follow.
T1: RBFOX1 RRM (Homo sapiens, UniProt Q9NWB1 109-208)
T1 sequence: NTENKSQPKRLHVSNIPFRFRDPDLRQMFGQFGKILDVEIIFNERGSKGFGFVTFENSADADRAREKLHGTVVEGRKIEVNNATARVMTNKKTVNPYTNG

B1: GACGGGG (DNA:RNA)
RNA: GGGAGACCGGAAUUCAGAUUGUCCGACGGGGUUAAAUCCCGUCGUAGCCACCA
DNA 1: CAATCTGAATTCCGGTCTCCC
DNA 2: TGGTGGCTACGACGGGATT
B2: CCGUGUG (DNA:RNA)
RNA: B1 RNA with G25C, A26C, C27G, G28U, G30U
DNA 1: CAATCTGAATTCCGGTCTCCC
DNA 2: TGGTGGCTACGACGGGATT
B3: UUUUUAU (DNA:RNA)
RNA: GGGAGACCGGAAUUCAGAUUGUCCUUUUUAUUUAAAUCCCGUCGUAGCCACCA
DNA 1: CAATCTGAATTCCGGTCTCCC
DNA 2: TGGTGGCTACGACGGGATT
B4: UCGGCGC (DNA:RNA)
RNA: B1 RNA with G25U, A26C, C27G, G29C, G31C
DNA 1: CAATCTGAATTCCGGTCTCCC
DNA 2: TGGTGGCTACGACGGGATT
B5: ACUGGUG (DNA:RNA)
RNA: B1 RNA with G25A, A26C, C27U, G30U
DNA 1: CAATCTGAATTCCGGTCTCCC
DNA 2: TGGTGGCTACGACGGGATT
B6: AUCUGGU (DNA:RNA)
RNA: B1 RNA with G25A, A26U, G28U, G31U
DNA 1: CAATCTGAATTCCGGTCTCCC
DNA 2: TGGTGGCTACGACGGGATT
B7: CUGAAUG (DNA:RNA)
RNA: B1 RNA with G25C, A26U, C27G, G28A, G29A, G30U
DNA 1: CAATCTGAATTCCGGTCTCCC
DNA 2: TGGTGGCTACGACGGGATT
B8: AGAAACA (DNA:RNA)
RNA: GGGAGACCGGAAUUCAGAUUGUCCAGAAACAUUAAAUCCCGUCGUAGCCACCA
DNA 1: CAATCTGAATTCCGGTCTCCC
DNA 2: TGGTGGCTACGACGGGATT
B9: CACUAAC (DNA:RNA)
RNA: B1 RNA with G25C, G28U, G29A, G30A, G31C
DNA 1: CAATCTGAATTCCGGTCTCCC
DNA 2: TGGTGGCTACGACGGGATT
B10: UCGUGGU (DNA:RNA)
RNA: B3 RNA with U26C, U27G, U29G, A30G
DNA 1: CAATCTGAATTCCGGTCTCCC
DNA 2: TGGTGGCTACGACGGGATT
B11: AUCUGGC (DNA:RNA)
RNA: B1 RNA with G25A, A26U, G28U, G31C
DNA 1: CAATCTGAATTCCGGTCTCCC
DNA 2: TGGTGGCTACGACGGGATT
B12: UUCUCAG (DNA:RNA)
RNA: B3 RNA with U27C, U29C, U31G
DNA 1: CAATCTGAATTCCGGTCTCCC
DNA 2: TGGTGGCTACGACGGGATT
B13: AGUAGAA (DNA:RNA)
RNA: B8 RNA with A27U, A29G, C30A
DNA 1: CAATCTGAATTCCGGTCTCCC
DNA 2: TGGTGGCTACGACGGGATT
B14: GCGUCCG (DNA:RNA)
RNA: B1 RNA with A26C, C27G, G28U, G29C, G30C
DNA 1: CAATCTGAATTCCGGTCTCCC
DNA 2: TGGTGGCTACGACGGGATT
B15: GGACGUU (DNA:RNA)
RNA: B8 RNA with A25G, A28C, A29G, C30U, A31U
DNA 1: CAATCTGAATTCCGGTCTCCC
DNA 2: TGGTGGCTACGACGGGATT
B16: GCGUGUG (DNA:RNA)
RNA: B1 RNA with A26C, C27G, G28U, G30U
DNA 1: CAATCTGAATTCCGGTCTCCC
DNA 2: TGGTGGCTACGACGGGATT
B17: CUGUACA (DNA:RNA)
RNA: B8 RNA with A25C, G26U, A27G, A28U
DNA 1: CAATCTGAATTCCGGTCTCCC
DNA 2: TGGTGGCTACGACGGGATT
B18: UACACUC (DNA:RNA)
RNA: B1 RNA with G25U, G28A, G29C, G30U, G31C
DNA 1: CAATCTGAATTCCGGTCTCCC
DNA 2: TGGTGGCTACGACGGGATT
B19: CACCUCU (DNA:RNA)
RNA: B1 RNA with G25C, G28C, G29U, G30C, G31U
DNA 1: CAATCTGAATTCCGGTCTCCC
DNA 2: TGGTGGCTACGACGGGATT
B20: GAAGGUA (DNA:RNA)
RNA: B1 RNA with C27A, G30U, G31A
DNA 1: CAATCTGAATTCCGGTCTCCC
DNA 2: TGGTGGCTACGACGGGATT

These binders were tested against T1, RBFOX1 RRM (assay: EMSA; HiTS-Eq, 1 nM pool, 10 min; buffer printed only for the single-RNA assays: 10 mM Tris pH 7.5, 150 mM NaCl, 3.4 mM EDTA, 0.001% NP-40, 30 C). Settings: tags: His6 N-terminal (pET28a); label: 5' 32P.
How it was run: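 Purified RbFox RRM, wild type or mutant, was incubated for 10 min in 50 µL with 1 nM of a 5′-radiolabelled RNA pool carrying 7 randomized nucleotides, whose flanks were annealed to DNA oligonucleotides, over a series of increasing protein concentrations. Unbound RNA was resolved on 8% native PAGE, cut out, reverse-transcribed, barcoded by PCR and sequenced on an Illumina HiSeq 2500. Relative association constants were derived from changes in read counts for each RNA species versus the control reaction and normalised to the cognate motif.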

Binder | binding signal
B1 | 0.0168 KA relative to UGCAUGU
B2 | 0.0133 KA relative to UGCAUGU
B3 | 0.0088 KA relative to UGCAUGU
B4 | 0.0154 KA relative to UGCAUGU
B5 | 0.0226 KA relative to UGCAUGU
B6 | 0.0102 KA relative to UGCAUGU
B7 | 0.0348 KA relative to UGCAUGU
B8 | 0.00355 KA relative to UGCAUGU
B9 | 0.000584 KA relative to UGCAUGU
B10 | 0.0169 KA relative to UGCAUGU
B11 | 0.0101 KA relative to UGCAUGU
B12 | 0.0126 KA relative to UGCAUGU
B13 | 0.00977 KA relative to UGCAUGU
B14 | 0.0136 KA relative to UGCAUGU
B15 | 0.0176 KA relative to UGCAUGU
B16 | 0.0222 KA relative to UGCAUGU
B17 | 0.00497 KA relative to UGCAUGU
B18 | 0.00209 KA relative to UGCAUGU
B19 | 0.00165 KA relative to UGCAUGU
B20 | 0.011 KA relative to UGCAUGU

From PMC9911399, “Two distinct binding modes provide the RNA-binding protein RbFox with extraordinary sequence specificity”
